Measurements published in paper PMC4850058, “TRIP6 antagonizes the recruitment of A20 and CYLD to TRAF6 to promote the LPA2 receptor-mediated TRAF6 activation” (Cell Discovery, 2016).
Results are given in words; binding and its absence hold for the method and conditions named. For some of these results: Binding seen in cells or lysates may run through a third protein. Some binding calls cover weakened binding; strength is not graded here. For some of these results: Sequences can lack the tags named with a protein. One block for each molecule: values may come before it.

Amino acid sequences for entries named in this document (tags omitted).
UniProt Q04207: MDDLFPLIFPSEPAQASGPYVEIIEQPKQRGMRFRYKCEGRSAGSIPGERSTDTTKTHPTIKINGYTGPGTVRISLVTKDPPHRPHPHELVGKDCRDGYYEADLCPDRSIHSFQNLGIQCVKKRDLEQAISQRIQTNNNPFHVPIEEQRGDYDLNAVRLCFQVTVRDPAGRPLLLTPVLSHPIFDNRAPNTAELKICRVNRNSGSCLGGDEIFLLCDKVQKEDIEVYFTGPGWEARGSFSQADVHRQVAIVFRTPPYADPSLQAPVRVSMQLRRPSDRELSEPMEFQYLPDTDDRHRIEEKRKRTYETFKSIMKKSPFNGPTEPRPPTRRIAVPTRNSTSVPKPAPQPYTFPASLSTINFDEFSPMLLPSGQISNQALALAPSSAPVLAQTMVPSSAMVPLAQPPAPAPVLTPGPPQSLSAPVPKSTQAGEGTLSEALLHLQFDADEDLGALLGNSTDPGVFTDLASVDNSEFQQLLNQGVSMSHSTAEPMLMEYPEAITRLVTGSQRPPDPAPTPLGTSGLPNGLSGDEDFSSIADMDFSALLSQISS

What was measured:
[1] = target: T1, TRIP6, endogenous in mouse embryonic fibroblasts (mouse (endogenous in LPA1/2 DKO MEFs)) (UniProt Q9Z1Y4); assay: co-IP; cytosolic endogenous TRIP6 immunoprecipitated with anti-TRIP6 mouse monoclonal antibody from LPA1/2 DKO MEFs expressing LPA2 receptor and scrambled shRNA; starved 6 h, LPA 1 h; immunoblot for NF-κB p65
T1 sequence: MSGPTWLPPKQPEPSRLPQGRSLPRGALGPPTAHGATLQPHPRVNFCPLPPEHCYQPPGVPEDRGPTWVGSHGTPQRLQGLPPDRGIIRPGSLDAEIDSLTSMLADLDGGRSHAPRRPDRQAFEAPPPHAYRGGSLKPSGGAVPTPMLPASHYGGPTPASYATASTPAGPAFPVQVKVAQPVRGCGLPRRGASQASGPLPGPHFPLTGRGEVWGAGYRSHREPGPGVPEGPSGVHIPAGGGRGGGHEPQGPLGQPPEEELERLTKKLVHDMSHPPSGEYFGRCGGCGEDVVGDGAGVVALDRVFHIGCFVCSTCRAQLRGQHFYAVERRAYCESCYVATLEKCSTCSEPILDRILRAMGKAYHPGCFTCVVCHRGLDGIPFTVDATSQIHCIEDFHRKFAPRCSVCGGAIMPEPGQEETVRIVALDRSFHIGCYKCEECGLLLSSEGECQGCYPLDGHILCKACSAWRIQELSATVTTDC

[2] = target: T1, TRIP6, endogenous in mouse embryonic fibroblasts (mouse (endogenous in LPA1/2 DKO MEFs)); assay: condition: only with knockdown of TRAF6 (TRAF6 shRNA); co-IP; as a15, in MEFs with TRAF6 shRNA
[3] = target: T2, FLAG-TRAF6 (UniProt P70196); assay: co-IP; FLAG-TRAF6 immunoprecipitated from HEK293T without or with co-expressed TRIP6 as competitor (HA-TRIP6; EGFP-TRIP6 or its deletion mutants); starved 6 h, without or with LPA; immunoblot for endogenous A20, CYLD
T2 sequence: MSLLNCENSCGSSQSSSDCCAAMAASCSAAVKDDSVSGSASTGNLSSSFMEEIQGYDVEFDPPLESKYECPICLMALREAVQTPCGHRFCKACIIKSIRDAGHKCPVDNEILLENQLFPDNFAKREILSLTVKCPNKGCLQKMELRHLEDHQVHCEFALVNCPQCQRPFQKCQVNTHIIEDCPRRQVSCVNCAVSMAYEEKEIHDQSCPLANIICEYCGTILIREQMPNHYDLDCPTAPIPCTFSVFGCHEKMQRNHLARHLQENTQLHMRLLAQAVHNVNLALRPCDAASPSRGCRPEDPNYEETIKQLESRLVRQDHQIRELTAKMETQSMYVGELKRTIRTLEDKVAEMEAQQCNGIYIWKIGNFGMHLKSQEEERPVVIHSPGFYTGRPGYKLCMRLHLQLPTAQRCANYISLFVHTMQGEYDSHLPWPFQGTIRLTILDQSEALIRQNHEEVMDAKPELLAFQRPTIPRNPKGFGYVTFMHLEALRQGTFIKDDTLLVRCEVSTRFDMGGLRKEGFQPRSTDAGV

[4] = target: T3, purified recombinant TRAF6 (UniProt P70196); assay: pull-down; FLAG-A20 immunoprecipitated on anti-FLAG M2 agarose from LPA-treated HEK293T (RIPA buffer); beads incubated with 0.1 μg purified recombinant TRAF6 without or with 0.1 μg purified recombinant TRIP6, 4 °C, 3 h; washed four times; immunoblot; both purified
T3 sequence: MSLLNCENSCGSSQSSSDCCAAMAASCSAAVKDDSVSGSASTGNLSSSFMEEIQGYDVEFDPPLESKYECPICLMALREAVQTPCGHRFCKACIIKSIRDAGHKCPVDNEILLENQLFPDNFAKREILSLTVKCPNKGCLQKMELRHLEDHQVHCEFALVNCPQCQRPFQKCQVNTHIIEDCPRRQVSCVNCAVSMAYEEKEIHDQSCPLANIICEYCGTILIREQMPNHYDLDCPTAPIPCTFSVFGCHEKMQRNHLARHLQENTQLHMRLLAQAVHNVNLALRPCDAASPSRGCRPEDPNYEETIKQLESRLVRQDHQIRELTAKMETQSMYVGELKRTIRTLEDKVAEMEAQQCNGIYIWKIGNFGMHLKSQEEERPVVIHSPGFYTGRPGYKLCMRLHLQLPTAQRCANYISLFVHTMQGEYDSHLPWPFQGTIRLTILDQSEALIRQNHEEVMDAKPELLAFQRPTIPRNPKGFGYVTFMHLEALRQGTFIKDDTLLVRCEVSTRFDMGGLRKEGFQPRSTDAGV

[5] = target: T4, GST-TRAF6 (UniProt P70196); assay: pull-down; purified recombinant TRIP6 incubated with GST, GST-TRAF6 or GST-CT, 4 °C, 3 h; anti-TRIP6 immunoblot; both purified
T4 sequence: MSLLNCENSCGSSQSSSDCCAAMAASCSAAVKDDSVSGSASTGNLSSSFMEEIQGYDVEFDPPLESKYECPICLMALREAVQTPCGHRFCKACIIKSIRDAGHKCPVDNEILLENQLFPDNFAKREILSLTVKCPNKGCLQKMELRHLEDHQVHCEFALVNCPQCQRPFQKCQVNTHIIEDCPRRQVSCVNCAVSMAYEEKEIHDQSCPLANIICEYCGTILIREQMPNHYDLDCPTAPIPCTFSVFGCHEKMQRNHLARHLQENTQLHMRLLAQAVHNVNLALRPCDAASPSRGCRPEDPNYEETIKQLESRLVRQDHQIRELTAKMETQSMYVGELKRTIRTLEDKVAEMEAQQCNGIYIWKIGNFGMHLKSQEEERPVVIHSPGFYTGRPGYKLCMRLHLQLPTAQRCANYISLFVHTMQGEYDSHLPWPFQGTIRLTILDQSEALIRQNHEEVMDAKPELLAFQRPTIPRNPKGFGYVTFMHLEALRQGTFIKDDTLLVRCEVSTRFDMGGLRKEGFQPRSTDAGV

[6] = target: T2, FLAG-TRAF6; assay: co-IP; FLAG-TRAF6 immunoprecipitated with anti-FLAG M2 agarose from HEK293T; starved 6 h, LPA for the indicated times; immunoblot for endogenous CYLD, A20, TRIP6
[7] = target: T5, FLAG-TRIP6 mutant containing the pre-LIM region (residues 1–278) (UniProt Q15654); assay: co-IP; FLAG-TRIP6 constructs co-expressed with EGFP-tagged TRAF6 domains in HEK293T; anti-FLAG M2 immunoprecipitation; anti-GFP immunoblot
T5 sequence: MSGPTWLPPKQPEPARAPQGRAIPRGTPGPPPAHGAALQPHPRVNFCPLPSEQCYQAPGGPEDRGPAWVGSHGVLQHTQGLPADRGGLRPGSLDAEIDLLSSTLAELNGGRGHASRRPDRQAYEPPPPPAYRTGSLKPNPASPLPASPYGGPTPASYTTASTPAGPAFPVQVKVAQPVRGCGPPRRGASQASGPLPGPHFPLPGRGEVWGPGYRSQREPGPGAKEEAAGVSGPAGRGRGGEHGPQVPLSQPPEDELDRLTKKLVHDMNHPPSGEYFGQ

[8] = target: T6, FLAG-TRIP6 mutant containing three LIM domains (residues 220–476) (UniProt Q15654); assay: as above
T6 sequence: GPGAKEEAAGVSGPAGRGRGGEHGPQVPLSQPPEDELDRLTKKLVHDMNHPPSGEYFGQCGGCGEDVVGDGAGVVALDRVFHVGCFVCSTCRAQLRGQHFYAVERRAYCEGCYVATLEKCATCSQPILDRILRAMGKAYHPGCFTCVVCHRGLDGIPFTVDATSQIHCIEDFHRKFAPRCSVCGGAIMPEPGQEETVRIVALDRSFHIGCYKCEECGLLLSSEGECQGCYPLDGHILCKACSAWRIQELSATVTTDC

Molecule: NF-κB p65, endogenous in mouse embryonic fibroblasts (from UniProt Q04207 1-549)
binding [1]: binds
binding [2]: no binding

B2: purified recombinant TRIP6 (protein, UniProt Q15654 1-476)
chain: MSGPTWLPPKQPEPARAPQGRAIPRGTPGPPPAHGAALQPHPRVNFCPLPSEQCYQAPGGPEDRGPAWVGSHGVLQHTQGLPADRGGLRPGSLDAEIDLLSSTLAELNGGRGHASRRPDRQAYEPPPPPAYRTGSLKPNPASPLPASPYGGPTPASYTTASTPAGPAFPVQVKVAQPVRGCGPPRRGASQASGPLPGPHFPLPGRGEVWGPGYRSQREPGPGAKEEAAGVSGPAGRGRGGEHGPQVPLSQPPEDELDRLTKKLVHDMNHPPSGEYFGQCGGCGEDVVGDGAGVVALDRVFHVGCFVCSTCRAQLRGQHFYAVERRAYCEGCYVATLEKCATCSQPILDRILRAMGKAYHPGCFTCVVCHRGLDGIPFTVDATSQIHCIEDFHRKFAPRCSVCGGAIMPEPGQEETVRIVALDRSFHIGCYKCEECGLLLSSEGECQGCYPLDGHILCKACSAWRIQELSATVTTDC
binding [4]: binds
binding [5]: binds

B4: TRIP6 (thyroid hormone receptor-interacting protein 6), endogenous (protein, UniProt Q15654 1-476)
chain: MSGPTWLPPKQPEPARAPQGRAIPRGTPGPPPAHGAALQPHPRVNFCPLPSEQCYQAPGGPEDRGPAWVGSHGVLQHTQGLPADRGGLRPGSLDAEIDLLSSTLAELNGGRGHASRRPDRQAYEPPPPPAYRTGSLKPNPASPLPASPYGGPTPASYTTASTPAGPAFPVQVKVAQPVRGCGPPRRGASQASGPLPGPHFPLPGRGEVWGPGYRSQREPGPGAKEEAAGVSGPAGRGRGGEHGPQVPLSQPPEDELDRLTKKLVHDMNHPPSGEYFGQCGGCGEDVVGDGAGVVALDRVFHVGCFVCSTCRAQLRGQHFYAVERRAYCEGCYVATLEKCATCSQPILDRILRAMGKAYHPGCFTCVVCHRGLDGIPFTVDATSQIHCIEDFHRKFAPRCSVCGGAIMPEPGQEETVRIVALDRSFHIGCYKCEECGLLLSSEGECQGCYPLDGHILCKACSAWRIQELSATVTTDC
binding [6]: binds

B5: EGFP fusion protein containing the RING domain (residues 1–149) of TRAF6 (domain or fragment, UniProt P70196 1-149)
chain: MSLLNCENSCGSSQSSSDCCAAMAASCSAAVKDDSVSGSASTGNLSSSFMEEIQGYDVEFDPPLESKYECPICLMALREAVQTPCGHRFCKACIIKSIRDAGHKCPVDNEILLENQLFPDNFAKREILSLTVKCPNKGCLQKMELRHLE
binding [7]: no binding
binding [8]: binds

B8: EGFP fusion protein containing the zinc-finger (ZF) domains (residues 119–238) of TRAF6 (domain or fragment, UniProt P70196 119-238)
chain: PDNFAKREILSLTVKCPNKGCLQKMELRHLEDHQVHCEFALVNCPQCQRPFQKCQVNTHIIEDCPRRQVSCVNCAVSMAYEEKEIHDQSCPLANIICEYCGTILIREQMPNHYDLDCPTA
binding [7]: no binding
binding [8]: no binding

Other lines, results leading:

binding [3]: binds
B1: HA-TRIP6 (protein, UniProt Q15654 1-476)
chain: MSGPTWLPPKQPEPARAPQGRAIPRGTPGPPPAHGAALQPHPRVNFCPLPSEQCYQAPGGPEDRGPAWVGSHGVLQHTQGLPADRGGLRPGSLDAEIDLLSSTLAELNGGRGHASRRPDRQAYEPPPPPAYRTGSLKPNPASPLPASPYGGPTPASYTTASTPAGPAFPVQVKVAQPVRGCGPPRRGASQASGPLPGPHFPLPGRGEVWGPGYRSQREPGPGAKEEAAGVSGPAGRGRGGEHGPQVPLSQPPEDELDRLTKKLVHDMNHPPSGEYFGQCGGCGEDVVGDGAGVVALDRVFHVGCFVCSTCRAQLRGQHFYAVERRAYCEGCYVATLEKCATCSQPILDRILRAMGKAYHPGCFTCVVCHRGLDGIPFTVDATSQIHCIEDFHRKFAPRCSVCGGAIMPEPGQEETVRIVALDRSFHIGCYKCEECGLLLSSEGECQGCYPLDGHILCKACSAWRIQELSATVTTDC

binding [3]: binds
B3: EGFP-TRIP6 (protein, UniProt Q15654 1-476)
chain: MSGPTWLPPKQPEPARAPQGRAIPRGTPGPPPAHGAALQPHPRVNFCPLPSEQCYQAPGGPEDRGPAWVGSHGVLQHTQGLPADRGGLRPGSLDAEIDLLSSTLAELNGGRGHASRRPDRQAYEPPPPPAYRTGSLKPNPASPLPASPYGGPTPASYTTASTPAGPAFPVQVKVAQPVRGCGPPRRGASQASGPLPGPHFPLPGRGEVWGPGYRSQREPGPGAKEEAAGVSGPAGRGRGGEHGPQVPLSQPPEDELDRLTKKLVHDMNHPPSGEYFGQCGGCGEDVVGDGAGVVALDRVFHVGCFVCSTCRAQLRGQHFYAVERRAYCEGCYVATLEKCATCSQPILDRILRAMGKAYHPGCFTCVVCHRGLDGIPFTVDATSQIHCIEDFHRKFAPRCSVCGGAIMPEPGQEETVRIVALDRSFHIGCYKCEECGLLLSSEGECQGCYPLDGHILCKACSAWRIQELSATVTTDC

binding [3]: binds
B6: EGFP-1–397 deletion mutant of TRIP6 (domain or fragment, UniProt Q15654 1-397)
chain: MSGPTWLPPKQPEPARAPQGRAIPRGTPGPPPAHGAALQPHPRVNFCPLPSEQCYQAPGGPEDRGPAWVGSHGVLQHTQGLPADRGGLRPGSLDAEIDLLSSTLAELNGGRGHASRRPDRQAYEPPPPPAYRTGSLKPNPASPLPASPYGGPTPASYTTASTPAGPAFPVQVKVAQPVRGCGPPRRGASQASGPLPGPHFPLPGRGEVWGPGYRSQREPGPGAKEEAAGVSGPAGRGRGGEHGPQVPLSQPPEDELDRLTKKLVHDMNHPPSGEYFGQCGGCGEDVVGDGAGVVALDRVFHVGCFVCSTCRAQLRGQHFYAVERRAYCEGCYVATLEKCATCSQPILDRILRAMGKAYHPGCFTCVVCHRGLDGIPFTVDATSQIHCIEDFHRKFAP

binding [3]: binds
B7: EGFP-1–350 mutant of TRIP6 (domain or fragment, UniProt Q15654 1-350)
chain: MSGPTWLPPKQPEPARAPQGRAIPRGTPGPPPAHGAALQPHPRVNFCPLPSEQCYQAPGGPEDRGPAWVGSHGVLQHTQGLPADRGGLRPGSLDAEIDLLSSTLAELNGGRGHASRRPDRQAYEPPPPPAYRTGSLKPNPASPLPASPYGGPTPASYTTASTPAGPAFPVQVKVAQPVRGCGPPRRGASQASGPLPGPHFPLPGRGEVWGPGYRSQREPGPGAKEEAAGVSGPAGRGRGGEHGPQVPLSQPPEDELDRLTKKLVHDMNHPPSGEYFGQCGGCGEDVVGDGAGVVALDRVFHVGCFVCSTCRAQLRGQHFYAVERRAYCEGCYVATLEKCATCSQPILDRI
